Laboratory results: US20100086555A1
Like-named read-outs stand apart in the source and are kept apart here.

B1: FC41 (antibody, V domains shown)
VH: QVQLVQPGAEVKKPGSSVKVSCKASGGIFSPYAISWVRQAPGQGLEWMGGIIAIFGTTNYAQKFQGRVTITADKSTTTAYLELNSLRFEDTAVYYCARGGRYYVDYFDYWGQGTLVSVSS
VL: EIVLTQSPGTLSVSPGERATLS[… about 80 residues …]TFGQGTKVEIK
B2: FB54 (antibody, V domains shown)
VH: QVQLVQSGAEVKKPGSSLKVSCKASGVTFSMYTISWVRQAPGQGLEWMGGIIPLFGTANYEQKFQGRVTITADTSTNTAYMELSSLRSEDTAVYYCARAGTTLTRFNWFDPWGQGTLVTVSS
VL: [… about 100 residues …]YTFGQGTKLEIK

How the values were obtained:
[1] = target: H6 HA A/teal/HK/WN312/97 (on infectious virus) (influenza A virus A/teal/HK/W312/97 (H6N1)); assay: cell-based or functional assay
[2] = target: H5 HA A/Anhui/1/5 (on pseudotypes) (influenza A virus A/Anhui/1/5 (H5N1)); assay: cell-based or functional assay
[3] = target: H5 HA A/INDO/5/05 (on pseudotypes and on infectious virus) (influenza A virus A/INDO/5/05 (H5N1)); assay: cell-based or functional assay
[4] = target: H5 HA A/VN/1194/04 (on pseudotypes) (influenza A virus A/VN/1194/04 (H5N1)); assay: cell-based or functional assay
[5] = target: H5 HA A/HK/213/03 (on pseudotypes) (influenza A virus A/HK/213/03 (H5N1)); assay: cell-based or functional assay
[6] = target: H9 HA A/ck/HK/G9/97 (on infectious virus) (influenza A virus A/ck/HK/G9/97 (H9N2)); assay: cell-based or functional assay
[7] = target: H2 HA A/JP/305/57 (on infectious virus) (influenza A virus A/JP/305/57 (H2N2)); assay: cell-based or functional assay
[8] = target: H9 HA A/HK/1073/99 (on infectious virus) (influenza A virus A/HK/1073/99 (H9N2)); assay: cell-based or functional assay
[9] = target: H5 HA A/HK/491/97 (on pseudotypes) (influenza A virus A/HK/491/97 (H5N1)); assay: cell-based or functional assay
[10] = target: H1 HA A/SI/3/06 (on infectious virus) (influenza A virus A/SI/3/06 (H1N1)); assay: cell-based or functional assay
[11] = target: H5 HA A/WS/Mong/244/05 (on pseudotypes) (influenza A virus A/WS/Mong/244/05 (H5N1)); assay: cell-based or functional assay
[12] = target: H5 HA A/VN/1203/04 (on pseudotypes and on infectious virus) (influenza A virus A/VN/1203/04 (H5N1)); assay: cell-based or functional assay
[13] = target: H9 HA A/HK/1073/99 (ELISA antigen) (influenza A virus A/HK/1073/99 (H9)); assay: ELISA
[14] = target: H5 HA A/INDO/5/05 (ELISA antigen) (influenza A virus A/INDO/5/05 (H5N1)); assay: ELISA
[15] = target: H1 HA A/SI/3/06 (ELISA antigen) (influenza A virus A/SI/3/06 (H1)); assay: ELISA
[16] = target: recombinant trimeric H5 HA (A/VN/1203/04) (influenza A virus A/VN/1203/04 (H5N1)); assay: ELISA
[17] = target: H1 HA A/Texas/3/99 (ELISA antigen) (influenza A virus A/Texas/3/99 (H1)); assay: ELISA
[18] = target: recombinant trimeric H5 HA (A/VN/1203/04) (influenza A virus A/VN/1203/04 (H5N1)); assay: competition ELISA on recombinant trimeric H5 HA; competitor C179
[19] = target: recombinant trimeric H5 HA (A/VN/1203/04) (influenza A virus A/VN/1203/04 (H5N1)); assay: competition ELISA on recombinant trimeric H5 HA; competitor FLD21
[20] = target: H5 HA A/VN/1203/04 (on pseudotypes and on infectious virus) (influenza A virus A/VN/1203/04 (H5N1)); assay: cell-based or functional assay; remark: listed apart in the source

Binder	Neutralization of HA-pseudotypes (IC90) [2]	Neutralization of HA-pseudotypes (IC90) [3]	Neutralization of infectious viruses (IC50) [3]	Neutralization H5pp IC90 [4]	Neutralization of HA-pseudotypes (IC90) [4]	Neutralization of HA-pseudotypes (IC90) [5]	Neutralization of infectious viruses (IC50) [6]	Neutralization of infectious viruses (IC50) [8]	Neutralization of HA-pseudotypes (IC90) [9]	Neutralization H1N1 IC90 [10]	Neutralization of infectious viruses (IC50) [10]	Neutralization of HA-pseudotypes (IC90) [11]	Neutralization of HA-pseudotypes (IC90) [12]	K50 [13]	K50 [14]	K50 [15]	K50 [16]	K50 [17]	Competition (%) [18]	Competition (%) [19]	other results
B1	0.082 mg/L	0.123 mg/L	25 mg/L	0.001 mg/L	0.045 mg/L	0.044 mg/L	9 mg/L	20 mg/L	0.016 mg/L	6.2 mg/L	31 mg/L	0.057 mg/L	0.066 mg/L	0.034 µg/mL	0.264 µg/mL	0.545 µg/mL	0.031 µg/mL	0.027 µg/mL	100%	< 20%	Neutralization of infectious viruses (IC50) [1]: 63 mg/L; Neutralization H9N2 IC50 [6]: 0.1 mg/L; Neutralization of infectious viruses (IC50) [7]: 25 mg/L; Hemagglutination inhibition titer [12]: < 5; Neutralization H5N1 IC50 [12]: 5 mg/L; Neutralization of infectious viruses (IC50) [12]: 40 mg/L; Neutralization of infectious viruses (IC50) [20]: > 12 mg/L
B2	0.059 mg/L	0.084 mg/L	16 mg/L	0.001 mg/L	0.036 mg/L	0.033 mg/L	9 mg/L	36 mg/L	0.021 mg/L	12.5 mg/L	9 mg/L	0.066 mg/L	0.028 mg/L	2.56 µg/mL	38.7 µg/mL	0.186 µg/mL	0.023 µg/mL	0.018 µg/mL	100%	< 20%	–
